Measurements taken from article PMC6919601, “Identification of Plasmodium dipeptidyl aminopeptidase allosteric inhibitors by high throughput screening” (PLoS ONE, 2019).
The campaign covered roughly 110,000 compounds. About 230 (0.21%) showed an effect of 50% or more. The list shows a part of the results.

The compounds below were run against DPAP1 (Plasmodium falciparum, UniProt Q8IIJ9) (assay: primary screen, percent inhibition; read by cleavage of a fluorogenic dipeptide substrate; higher = more effect of the substance).
Parameters: species or system P. falciparum D10 trophozoite lysates; single well
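Further: 30 min substrate incubation versus DMSO and 10 µM JCP410 controls.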

Sequence of DPAP1 (Q8IIJ9 whole entry, looked up): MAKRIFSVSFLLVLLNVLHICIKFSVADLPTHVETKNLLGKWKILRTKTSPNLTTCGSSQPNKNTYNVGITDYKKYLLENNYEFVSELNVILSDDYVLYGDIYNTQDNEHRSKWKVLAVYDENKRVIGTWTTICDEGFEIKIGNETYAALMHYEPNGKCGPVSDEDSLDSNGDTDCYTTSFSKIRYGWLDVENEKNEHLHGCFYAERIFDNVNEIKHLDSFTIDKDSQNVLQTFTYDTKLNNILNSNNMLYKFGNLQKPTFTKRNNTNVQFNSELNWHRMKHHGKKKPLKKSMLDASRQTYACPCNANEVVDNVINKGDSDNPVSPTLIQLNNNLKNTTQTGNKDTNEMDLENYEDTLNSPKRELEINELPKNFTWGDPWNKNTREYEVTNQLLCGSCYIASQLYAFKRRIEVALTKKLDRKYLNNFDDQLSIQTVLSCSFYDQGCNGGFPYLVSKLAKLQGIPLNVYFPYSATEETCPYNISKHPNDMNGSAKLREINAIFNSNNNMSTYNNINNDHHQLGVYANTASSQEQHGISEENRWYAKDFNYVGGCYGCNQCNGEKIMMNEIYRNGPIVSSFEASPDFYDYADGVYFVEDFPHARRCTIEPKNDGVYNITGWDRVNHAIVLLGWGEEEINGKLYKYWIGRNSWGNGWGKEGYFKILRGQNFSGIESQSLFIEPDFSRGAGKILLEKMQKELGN

SMILES	% Inhibition @ 10 uM [%]
Cc1ccc(-c2csc(/C(C#N)=C/c3ccc(Cl)cc3)n2)cc1	-4.31
NS(=O)(=O)c1cccc(NC(=O)c2cc3ccccc3o2)c1	-2.37
Cc1cc(C(=O)NC(C)c2ccc3c(c2)OCCO3)c2c(C)nn(-c3ccccc3)c2n1 (centres unmarked)	3.75
Cc1ccc(-c2ccc(/C=C3/SC(N4CCOCC4)=NC3=O)o2)cc1	7.5
CN(CCNC(=O)c1csc2c1CCCC2)C1CCCCC1	-3.21
C=CCc1c(C)nc(-c2ccccc2)nc1O	-0.725
Cc1ccc(Nc2nc(-c3ccc(Cl)c(Cl)c3)cs2)cc1C	0.986
Oc1nnc(Sc2ncnc3[nH]cnc23)c(O)n1	-0.0267
O=C(COc1ccccc1)Nc1ccc(C(=O)c2ccccc2)cc1	-3.09
CCOC(=O)c1ccc(NC(=O)c2cccc(C)c2)cc1	0.317
CC(NC(=S)NCCc1ccc(S(N)(=O)=O)cc1)C12CC3CC(CC(C3)C1)C2 (centres unmarked)	23.1
COc1ccc(C(=O)NCCCc2ccccc2)cc1	2.76
COc1ccc2sc(N(CCN(C)C)C(=O)c3cccc(C(F)(F)F)c3)nc2c1	0.918
CCOc1ccc(C(=O)n2nc(N)c3cc4cc(OC)ccc4nc32)cc1	3.01
CC1=CC2=NC(=O)/C(=C\c3ccc(-c4ccc(F)cc4)o3)C(=N)N2O1	-1.43
Cc1ccc(N2C(N)=C(C#N)C3(C(=O)N(C)c4ccccc43)C3=C2CC(C)(C)CC3=O)cc1Cl (centres unmarked)	4.01
CC1CC(C)CN(CCCNC(=O)c2cc3cc4ccc(Cl)cc4nc3o2)C1 (centres unmarked)	3.53
O=C(Nc1ccccc1C(=O)N1CCCCCC1)c1ccco1	-11.9
O=C(CCCN1C(=O)CSc2ncccc21)NCCc1ccc(Cl)cc1	-0.637
COc1ccc(-c2csc3ncn(Cc4ccccc4F)c(=O)c23)cc1OC	2.56
Cc1nc2nc(N)nn2c(O)c1Cl	-3.64
CC(CNS(=O)(=O)c1ccc(-c2ccc(O)nn2)o1)c1ccccc1 (centres unmarked)	-1.98
O=C(CCNS(=O)(=O)c1cccs1)NCc1ccccc1Cl	-3.79
COc1ccc(CN2CCN(Cc3cccc(OC)c3OC)CC2)c(OC)c1	-2.99
Cn1c(CN2CCOCC2)nc(=O)c2ccccc21	-0.999
FC(F)(F)c1cccc(N2CCN(Cc3cccc(Br)c3)CC2)c1	-7.33

SMILES	% Inhibition @ 10 uM [%]
O=C(Cn1c2ccccc2c2cnnc(O)c21)NCCCN1CCCC1=O	-2
COc1ccccc1-n1nnc(-c2nc(-c3ccccc3C)no2)c1N	2.19
Cc1oc2c(C)c3oc(=O)c(CC(=O)O)c(C)c3cc2c1C	0.558
COc1cc2nc(NCC3CCCO3)n3nc(-c4ccccc4)nc3c2cc1OC (centres unmarked)	2.6
COc1cc(-c2noc(CCC(=O)NC(C)C)n2)cc(OC)c1OC	2.02
CCc1nc2ccc(C(=O)NCCN3CCN(C)CC3)cc2nc1CC	4.85
CC(C)C(C(=O)N1CCCCCC1)N1C(=O)c2ccccc2C1=O (centres unmarked)	-2.69
CC(=O)Nc1ccc2c(c1)C1C=CCC1C(c1ccccc1F)N2 (centres unmarked)	3.44
O=C(OCCN1CCCCC1)c1sc2cccc(F)c2c1Cl	-6.42
CC(=O)Nc1ccc(NC(=O)CSc2ncnc3sc4c(c23)CCCC4)cc1	-5.7
O=c1c2c3c(sc2n(Cc2cc(=O)n4ccccc4n2)c(=O)n1Cc1ccccc1)CCCC3	2.17
COC(=O)c1cccc(-n2c(C)ccc2-c2ccccc2)c1	-8.57
COC(=O)c1ccc(C(=O)OC)s1	-5.47
Cc1cc(NC(=O)C(=O)c2c(C)[nH]c3ccccc23)no1	-2.63
COc1ccc(C(=O)Nc2c(C)nn(Cc3ccc(F)cc3)c2C)cc1OC	1.67
CCOC(=O)C1CCCCN1Cc1c(F)cccc1F (centres unmarked)	-1.75
C=CCOc1ccc(C(=O)C2=C(O)C(=O)N(CCCN(C)C)C2c2ccc(C(C)C)cc2)c(C)c1 (centres unmarked)	6.27
COc1ccc(Br)cc1C1C2=C(O)CCCC2=NC(C)=C1C(=O)N1CCOCC1 (centres unmarked)	7.93
CCOc1ccc(C2C(C#N)=C(N)Oc3cc(N)ccc32)cc1 (centres unmarked)	3.54
COc1ccc2[nH]c3c(=O)n(CC(=O)NCc4ccco4)c(=S)[nH]c3c2c1	1.15
Cc1cc(C)nc(NC(=O)CCCC(=O)O)c1	-4.77
Cc1ccc(S(=O)(=O)NCCCSC2CCCCC2)cc1	-4.97
CN(C)c1ccc(/C=C/C(=O)c2cccc([N+](=O)[O-])c2)cc1	-0.0217
Cc1cc(N)n(-c2ccc(S(=O)(=O)O)cc2)n1	-2.49
Cc1ccc(CNS(=O)(=O)c2csc(C(N)=O)c2)cc1	2.75
C=Cc1ccc(Cn2c(C)c(CNC3CCC(C)CC3)c(C(=O)O)c2C)cc1 (centres unmarked)	2.99

SMILES	% Inhibition @ 10 uM [%]
Cc1cc(O)nc2cc(N(C)C)ccc12	-7.87
COc1ccc(-c2nc(C#N)c(NCc3ccccc3Cl)o2)cc1	-5.1
COc1ccc(C2=C(C)C(N3CCC(Cc4ccccc4)CC3)=NS2(=O)=O)cc1	-4.68
CC1(C)CC2=Nc3nnnn3C(c3ccccc3Cl)C2=C(O)C1 (centres unmarked)	3.32
CC1CCN(C(=O)C(C(C)C)N2C(=O)c3cccc4cccc(c34)C2=O)CC1 (centres unmarked)	-3.93
CCCNC(=O)CCCN1C(=O)CSc2ncccc21	-2.37
CCn1cc(/C=C(\NC(=O)c2ccc(C)cc2)C(=O)NCCCO)c2ccccc21	3.24
O=C1CC(NCCc2ccccc2Cl)C(=O)N1c1ccccc1 (centres unmarked)	-2.32
COc1ccc(C(=O)CC2(O)C(=O)Nc3ccc(Br)cc32)cc1 (centres unmarked)	-5.3
Cc1ccccc1CNC(=O)Cn1ncn2c(cc3cc(F)ccc32)c1=O	0.0198
Cc1c(CNC2CCCC(C)C2C)c(C(=O)O)c(C)n1Cc1ccc(F)cc1 (centres unmarked)	6.02
O=S(=O)(Nc1cccc(C(F)(F)F)c1)c1ccc(Cl)cc1	1.27
CCN1CCN(Cc2nc3c(c(=O)[nH]c(=O)n3C)n2CCCc2ccccc2)CC1	15.5
COc1ccc(-c2csc3ncn(Cc4ccccc4C)c(=O)c23)cc1	-6.2
N#CC1=C(N)Oc2c(O)nc(O)nc2C1c1ccccc1[N+](=O)[O-] (centres unmarked)	1.7
OCCN1CCN(CC(O)COc2ccccc2)CC1 (centres unmarked)	-3.04
CC(C)c1ccc(-c2nc3c(=O)n(C)c(=O)n(C)c3[nH]2)cc1	2.09
Cn1c(=O)c2c(nc(S)n2Cc2cccc(C(F)(F)F)c2)n(C)c1=O	-3.19
O=C(O)c1c(CNC2CCN(Cc3ccccc3)CC2)c2ccccc2n1Cc1ccc(Cl)cc1	0.277
CC1(C)CC(=O)C2=C(C1)OC1=C(C(=O)CC(C)(C)C1)C2c1c[nH]nc1-c1ccccc1	25.5
O=C(/C=C/c1ccccc1)NC(=S)Nc1ccc(S(=O)(=O)Nc2nccs2)cc1	-11.4
CCCN(CCC)S(=O)(=O)c1ccc(NS(C)(=O)=O)cc1	-6.86
CC(=O)Nc1ccc(NC(=O)CCC2CCCC2)cc1	-0.884
O=C(c1ccccc1)N1CC(COc2ccccc2)OC(c2cccnc2)O1 (centres unmarked)	-5.63
O=C1CCC(=O)N1CCCn1c2ccccc2c2nc3ccccc3nc21	-0.0235
CCOc1ccc(NS(=O)(=O)c2ccc(NC(=O)c3ccccc3C)cc2)cc1	-5.32

SMILES	% Inhibition @ 10 uM [%]
Brc1ccc(Sc2nc3ccccc3[nH]2)cc1	-1.96
CC1(c2ccc(F)cc2)NC(=O)NC1=O (centres unmarked)	-1.5
CN(Cc1ccccc1)C(=O)COc1ccc(Cl)cc1	1.62
CCOc1ccc(N2C(=O)CC(NCc3ccccc3Cl)C2=O)cc1 (centres unmarked)	-2.99
CCCOc1ccc(/C=C2\C(=O)N(CCOC)C(C)=C2C(=O)OC)cc1OCC	-6.17
COc1ccc(-c2ncnn2-c2cccc(C(F)(F)F)c2)cc1	-1.15
CN(C)c1nccc(N(Cc2ccccc2)Cc2ccccc2)c1C#N	15.9
CC(=O)c1c(-c2ccccc2)nc2n(C)c3cc(C)c(C)cc3n12	-6.88
COc1cc(/C=C2/N=C(c3cccc(Cl)c3Cl)OC2=O)cc(OC)c1OC	-8.18
CC(C)(C)c1ccc(C(=O)OCCN2CCCCC2)cc1	-1.81
Cc1ccc(CNc2oc(COc3cccc(C)c3)nc2C#N)cc1	1.43
CN(CC(=O)NCCN1CCN(Cc2ccccc2)CC1)S(=O)(=O)c1cccc2nsnc12	-1.43
Cc1c(C(=O)NCCN2CCc3ccccc3C2)sc2nc3n(c(=O)c12)CCCCC3	-4.74
CN(C)c1nc2ccc(O)cc2s1	-7.55
CC(=O)N1C(=O)CC(C)N(C(C)=O)c2ccc([N+](=O)[O-])cc21 (centres unmarked)	0.847
CSc1ccc(/C=C(/C#N)C(=O)Nc2ccc(Cl)cc2)cc1	-1.54
c1cc2noc3c4cccc5noc(c(c1)c23)c54	-0.994
COC1CCCCC1Nc1ccccc1 (centres unmarked)	3.44
CCc1nc(N)c(C#N)c(-c2ccccc2OC)c1C	6.1
Cc1ccc(NC(=O)Cn2cc(S(=O)(=O)N3CCCC3)c(S(=O)(=O)N3CCCC3)c2)nc1	-1.7
Cc1c(CNC(C)c2ccccc2)c(C(=O)O)c(C)n1Cc1ccc(F)cc1 (centres unmarked)	-5.49
Cc1ccc(C2=NC3(CCNCC3)NC2=S)cc1	0.351
CCOC(=O)c1cc(-c2ccc(OC)c(S(=O)(=O)N3CCOCC3)c2)on1	-6.25
